PubChem BioAssay AID1508623 (National Center for Advancing Translational Sciences (NCATS), 2021)
Hit rate of the full screen: of about 48,000 compounds, about 450 (0.94%) were called active. Roughly 19% stayed inconclusive and do not appear here. Calls follow the shape of the dose curve; as a rule, active = well fitted inhibition curve with a large enough effect; inconclusive = small, poorly fitted or top-dose-only effect; inactive = no such curve, though single readings can be large or run the other way. The list shows a part of the results.

Assay: Primary qHTS for Identification of Small Molecule Inhibitors of Huntingtin Promoter Activity; also: nearly all actives have a fitted effect of over 50% in size
Details: HEK293 HTT promoter firefly luciferase reporter (activity 0% = vehicle and -100% = no light), 24 h; series mostly up to 57.5 µM; activity change, negative = inhibition: at the top concentration
Procedure, shortened: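 Quantitative HTS used concentration series of up to 57.5 uM final on HEK293 luciferase reporter cells, 24 h at 37 degrees C. Readout was Dual-Glo firefly luminescence.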

Activity change, negative = inhibition, inactive:
CSc1ccc(CCNC(=O)c2ccc3c(Cl)c4c(nc3c2)CCCC4)cc1 -13%
CCCSc1ncc(Cl)c(C(=O)Nc2nc3ccc(C)cc3s2)n1 -17.2%
Cc1cc(C)c2c(CC(=O)Nc3ccccc3C(F)(F)F)coc2c1 -17.1%
COc1ccc(S(=O)(=O)c2c(O)c3ccc(C(=O)Nc4ccccc4)cc3[nH]c2=O)cc1 -5.02%
Cc1nn2c(=O)cc(COC(=O)c3cccs3)nc2s1 22.8%
Cc1cccc(NC(=O)C2CCN(c3nnc(C)c4c(C)n(-c5ccccc5)nc34)CC2)c1C 5.27%
O=C(NCc1ccccc1)C(=O)NCC(c1ccco1)S(=O)(=O)c1cccs1 (centres undefined) -21.1%
Cc1ccc(Cl)cc1NC(=O)C1CCCN(c2cnccn2)C1 (centres undefined) 10.5%
CCc1nn(CC(=O)Nc2cccc(C(C)=O)c2)c(=O)c2cc3sccc3n12 -19.9%
CCOC(=O)N1CCC(Nc2ccc(Cl)cc2N)CC1 -17%
CN(C)c1ccc(C(CNS(=O)(=O)c2ccc(Cl)cc2)N2CCOCC2)cc1 (centres undefined) -23.8%
CCOC(=O)c1ccccc1NC(=O)Cn1c(=O)n(Cc2nc(C)no2)c(=O)c2ccccc21 -15.6%
CN(c1ccccc1C(=O)O)S(=O)(=O)c1ccc2[nH]c(=O)oc2c1 3.16%
O=C(CCn1c(=O)c2ccccc2n(Cc2cccc(Cl)c2)c1=O)NCCc1ccccc1 -1.29%
O=C(NCc1ccc(F)cc1)C1(c2cccs2)CCOCC1 -6.91%
Cc1ccc(OCC(=O)Nc2nnc(S(=O)(=O)N3CCCCCC3)s2)cc1 -7.05%
COc1cc(Nc2nc3c(S(=O)(=O)c4ccc(C)c(C)c4)nnn3c3ccsc23)cc(OC)c1 -17.4%
Oc1ccc(NCc2ccccc2OCc2ccc(Cl)cc2)cc1 21.2%
CCOC(=O)c1c(NC(=O)C2c3ccccc3Oc3ccccc32)sc(C)c1CC -19.7%
CCn1c(=O)cc(OCC(=O)N(C)c2cc(Cl)ccc2C)c2ccccc21 -15.3%
COC(=O)c1ccccc1NC(=O)N1CCC(N2CCN(Cc3ccc(F)cc3)C(=O)C2=O)CC1 -0.8%
CC(C)(C)C1CCc2nc(NC(=O)Cc3ccccc3)sc2C1 (centres undefined) 39.6%
CSc1ccc(-c2nc3cccc(C)n3c2Nc2ccc(Cl)cc2)cc1 9.85%
COc1ccccc1N1C(=O)N(CC(=O)C(C)(C)C)c2ccccc2S1(=O)=O -15%
CCCCC(CC)COC(=O)c1ccc(N(C)C)cc1 (centres undefined) -1.85%
COc1cc(O)c(C(=O)c2ccccc2)cc1S(=O)(=O)O 3.23%
CN(C)CCNC(=O)c1ccc(-c2nn(C)c(=O)c3ccccc23)cc1 1.1%
Nc1cccc2c1C(=O)N(C1CCC(=O)NC1=O)C2=O (centres undefined) 2.99%
O=C(O)Cc1ccccc1Oc1ccc(Cl)cc1Cl 0.178%
COc1cc(OC)cc(OC)c1 10.4%
CCOc1ccc(CCNC(=O)c2nn(C)c3c2CSc2ccccc2-3)cc1 -24.8%
Cc1cccc(C(=O)NNc2ncnc3c2cnn3-c2ccc(C)cc2C)c1 -8.94%
O=C(O)c1ccc(NC(=O)c2cc(S(=O)(=O)N3CCCCC3)c(Cl)cc2Cl)cc1 -14.2%
COc1cccc(C(=O)Nc2nnc(S(=O)(=O)N3CCCC3)s2)c1 -6.69%
Cc1ccc(Cn2cnc3nc4c(cc3c2=O)CC(C)CC4)cc1 (centres undefined) 46.6%
CC(C)c1ccc(S(=O)(=O)c2cnc(SCC(=O)Nc3ccc4c(c3)OCCO4)[nH]c2=O)cc1 -5.69%
CCCNC(=O)CN1C(=O)CSc2ccc(S(=O)(=O)N3CCC(C)CC3)cc21 -19.4%
CCC(C)NC(=O)CCCc1nnc2n(CC(C)C)c(=O)c3sccc3n12 (centres undefined) -3.08%
Cc1ccccc1-c1noc(-c2ccc(NCc3ccco3)c([N+](=O)[O-])c2)n1 3.03%
COc1ccc2c(Sc3ccc(C)cc3)c(C(=O)NC(C)C)[nH]c2c1 -28.2%
CCOc1ccc(-n2c(=O)c3c(C)c(C)sc3n(CC(=O)NCCc3ccccc3)c2=O)cc1 -6.8%
O=c1oc2ccccc2c(N2CCN(c3ccccc3F)CC2)c1CN1CCCC1 -12.9%
CCOc1ccc(C2CC(=O)c3c([nH]c(C(=O)OCC4CCCCC4)c3C)C2)cc1 (centres undefined) -1.03%
COCCCNC(=O)c1nn(-c2ccc(C)cc2)nc1CO -14.6%
COc1cccc(NC(=O)C(Cc2ccccc2)NS(=O)(=O)c2ccc3c(c2)c(=O)n(C)c(=O)n3C)c1 (centres undefined) -13.5%
CCCc1cc(=O)oc2cc(C)c3c(-c4ccccc4)coc3c12 -10.8%
O=C(CN1C(=O)CSc2ccc(S(=O)(=O)N3CCCC3)cc21)Nc1cccc(Cl)c1 -20.3%
Cc1ccc(NC(=O)CC2Nc3ccccc3NC2=O)cc1C (centres undefined) -6.7%
Cc1ccccc1C(=O)N(Cc1sccc1C)C1CCS(=O)(=O)C1 (centres undefined) -12%
COc1ccc(CCNC(=O)c2ccc(Cn3c(=O)c4ccccc4n(CC(=O)C(C)(C)C)c3=O)cc2)cc1OC -16.2%
COc1cc(NC(=O)CCn2nc(C)c(S(=O)(=O)N3CCCCC3)c2C)cc(OC)c1OC -23.6%
CC1CCCCN1CCCNC(=O)CN1C(=O)c2cccnc2Oc2ccccc21 (centres undefined) -3.15%
COc1ccc(Cl)cc1NC(=O)c1c(NCc2cccnc2)sc2c1CCC(C)C2 (centres undefined) -28.1%
Cc1ccc(Cl)cc1NC(=O)CCCn1c(=O)c2cccn2c2cccnc21 -0.173%
COc1ccccc1NC(=O)C1=C(C)Nc2c(C(=O)Nc3cccc(C)c3)cnn2C1c1ccccc1Cl (centres undefined) -9.25%
COCCCNC(=O)c1ccc(Cn2c(=O)c3ccccc3n(Cc3c(C)cc(C)cc3C)c2=O)cc1 -5.91%
CCN1CCN(C(c2ccc(SC)cc2)c2c(O)cc(C)n(CCOC)c2=O)CC1 (centres undefined) -11.6%
O=c1cc(-c2ccc(F)cc2)nc(SCc2nc(-c3ccc(Cl)cc3)no2)[nH]1 5.43%
CCOC(=O)c1c(C)[nH]c(C)c1S(=O)(=O)NCC(=O)NCc1cccc(C)c1 -15.3%
CCOC(=O)c1ccc(CN(Cc2ccc(Br)cc2)S(=O)(=O)c2cccc(Cl)c2C)cc1 -18%
COc1cc(C(=O)NCC(c2ccc(Cl)cc2)N2CCOCC2)cc(OC)c1OC (centres undefined) -3.92%
CCOC(=O)CC(NC(=O)Cn1nnc(-c2ccccc2F)n1)c1ccccc1Cl (centres undefined) -14.8%
CCc1ccc(C2C(C(=O)Nc3ccccc3C)=C(C)Nc3nc(SCc4cccc(OC)c4)nn32)cc1 (centres undefined) -4.14%
CC(=O)c1ccc(NC(=O)CSc2nc(=O)n(Cc3ccncc3)c3c2CCC3)cc1 0%
CCS(=O)(=O)c1ncc(N(Cc2ccco2)Cc2ccccc2F)c(C(=O)Nc2cccc(Cl)c2)n1 -26.5%
O=C(Cn1c(=O)nc(-c2ccccc2)c2ccccc21)NCc1ccccc1Cl 8.86%
Cc1ccc(N2CCN(C(=O)c3cn(C)c4ccc(S(=O)(=O)N(C)C)cc4c3=O)CC2C)cc1 (centres undefined) -12%
CC(C)(Oc1ccc(Br)cc1)C(=O)Nc1cc(-c2nc3ccccc3[nH]2)ccc1Cl -3.55%
O=C(CN1N=C(c2ccc(Cl)cc2)CCC1=O)NCCc1ccccc1 -10.3%
Cc1ccc(NC(=O)Cn2nc(Cc3ccncc3)c3ccccc3c2=O)c(Cl)c1 -9.12%
CNCc1ccccc1 8.67%
COc1ccccc1CNC(=O)CN1N=C(c2ccccc2)CCC1=O -5.19%
CCOc1ccc(NC(=O)c2oc3ccccc3c2NC(=O)c2ccc(OC)cc2OC)cc1 -5.25%
COc1ccc(CNC(=O)CS(=O)Cc2nc(-c3cccc(C)c3)oc2C)cc1 (centres undefined) -8.25%
Fc1ccccc1N1CCN(c2nccn3nc(-c4ccc(Br)cc4)cc23)CC1 -14.3%
Cc1ccc(S(=O)(=O)NCC2CCC(C(=O)NCCCOC(C)C)CC2)cc1 (centres undefined) -12.6%
CCCCN(CC)CCNC(=O)c1cc2c(=O)n(CC)c3ccccc3c2s1 -2.11%
CCCCNc1nc2ccccc2c2nc(-c3ccccc3)nn12 0.03%
Cc1nc(SCCOc2ccccc2F)[nH]c(=O)c1Cc1ccccc1 -4.83%
Cc1ccccc1NC(=O)c1oc2c(c1C)-c1nn(Cc3cccc(Cl)c3)cc1CC2 -13.4%
CC1(C)Cc2c(c(N3CCOCC3)nc3sc(C(=O)Nc4ccc(Cl)cc4)c(N)c23)CO1 -5.11%
Cc1cccc(NC(=O)CSc2nc(-c3cccc(C)c3)nc3c2Cc2c(CO)cnc(C)c2O3)c1 -11.4%
CCc1nc2ccc(C(=O)NCc3ccc(OC)c(OC)c3)cc2nc1CC 0.88%
Cc1ccc2c(CC(=O)Nc3cccc(C(F)(F)F)c3)coc2c1 -26.9%
Cc1ccc2c(c1)-c1onc(C(=O)N(C)c3cccc(C(F)(F)F)c3)c1CO2 -17.7%
Cc1ccccc1CNC(=O)Cn1c(C)c2cnn(-c3ccccc3)c(=O)c2c1C -19.7%
CCOC(=O)c1sc(N2C(=O)c3oc4ccccc4c(=O)c3C2c2ccc(C(C)(C)C)cc2)nc1C (centres undefined) -17.9% [at 11.5 µM]
CCCCOc1ccc(C(=O)Nc2cc(-c3ccc(C)cc3)no2)cc1 0.989%
Cc1cccn2c3c(c(=O)nc12)C(c1cccc(F)c1)CC(=O)N3 (centres undefined) -6.86%
N[C@@H](Cc1c[nH]c2ccc(O)cc12)C(=O)O
Cc1ccc(C)c(NC(=O)CSc2c(C)cnc3c2c(=O)n(C)c(=O)n3C)c1 -11%
O=C(Cn1cnc2nc3c(cc2c1=O)CCCC3)N1CCN(c2cccc(C(F)(F)F)c2)CC1 -23.1%
CCOc1ccc(OCC)c(NS(=O)(=O)c2c(C)[nH]c(=O)[nH]c2=O)c1 -8.25%
CN1C[C@@H]2C[C@H]1CN2c1cc2c(cc1F)c(=O)c(C(=O)O)cn2C1CC1 1.47% [at 25.2 µM]
CCC(=O)N1c2ccccc2CC1C(=O)N1CCN(c2cccc(OC)c2)CC1 (centres undefined) -4.86%
Cc1ccc(N(C)C(=O)CC(C)S(=O)(=O)c2ccc3c(c2)NC(=O)CO3)cc1 (centres undefined) -0.659%
CCc1ccc(NC(=O)Cn2ccn(-c3ccc(OC)cc3)c(=O)c2=O)cc1 -23.1%
COc1ccc(CCNC(=O)c2csc3c2CCCCC3)c(OC)c1 -22.3%
COc1ccc(Cn2c(C(=O)O)c(CNC3CCCC3)c3ccc(C)cc32)cc1 -3.88%
